In the supplement of paper PMC3334620:
Over roughly 33,000 sequences, “E-score (-0.5 to 0.5)” has its median near -0.017; the highest 2% begin near 0.3. The list shows a part of the results.

target: T1, Sut1 (UniProt P53032); test: PBM E-score (8-mer binding enrichment) (E-score (-0.5 to 0.5)); higher = stronger / more preferred TF binding; most listed sequences are background and not binding sites; conditions: protein concentration: 200 nM; construct: GST-full length
T1 sequence: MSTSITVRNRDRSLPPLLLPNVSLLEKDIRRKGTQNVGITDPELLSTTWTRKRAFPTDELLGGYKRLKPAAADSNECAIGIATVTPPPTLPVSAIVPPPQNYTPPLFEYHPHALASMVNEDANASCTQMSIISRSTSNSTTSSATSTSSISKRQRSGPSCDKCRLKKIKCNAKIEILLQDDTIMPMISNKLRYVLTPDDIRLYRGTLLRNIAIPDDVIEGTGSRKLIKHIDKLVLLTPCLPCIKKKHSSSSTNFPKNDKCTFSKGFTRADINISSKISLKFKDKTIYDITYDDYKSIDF
Outline: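 Universal all-10-mer Agilent arrays, fresh or stripped once, were converted to double-stranded form by primer extension. GST-tagged yeast transcription factors from PURExpress in vitro transcription/translation, full-length or DNA-binding domain only, were applied at about 100-200 nM and detected with fluorescent anti-GST. After masliner normalisation, the Universal PBM Analysis Suite scored each ungapped eight-base word together with its reverse complement by E-score.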

Row | Sequence | PBM E-score
1 | GGGAACCC | -0.101
2 | CCGGCTCG | 0.0953
3 | CGACGAGA | -0.0273
4 | CGGACACG | 0.0466
5 | AAGTATCC | -0.124
6 | AACTGTAG | -0.0514
7 | CGGGGGTC | -0.158
8 | AAATACAA | 0.238
9 | AATAAGTC | 0.0835
10 | AGACCACT | -0.00453
11 | GCCAGCGA | -0.231
12 | AACTTATT | 0.239
13 | AACGGTTA | -0.0731
14 | ACACTAGC | -0.252
15 | AATAGTAT | 0.233
16 | CAATGAAG | -0.093
17 | CTATGTTC | 0.153
18 | ATGGGGCC | -0.5
19 | AACAGAGA | -0.0653
20 | CCATCAAC | -0.0668
21 | CGTGTTCA | 0.00384
22 | GGTGGTGA | 0.0661
23 | AATATACA | 0.29
24 | TAACCTTA | 0.0692
25 | CTCCTTAA | 0.116

Row | Sequence | PBM E-score
26 | GGCTGGAC | -0.278
27 | AGTCACTG | -0.118
28 | ATTTAAAC | 0.256
29 | ATATGTCG | -0.0687
30 | ACGAACTC | 0.174
31 | ACAGTGCT | 0.0366
32 | ATCTCAAT | 0.113
33 | CAGGACGG | -0.124
34 | ACGCTAAT | -0.0165
35 | GGTGTGTA | -0.123
36 | CTGTATTC | 0.209
37 | GCTCAAGA | -0.148
38 | CCATTGCC | -0.0398
39 | CCGAATCC | 0.143
40 | CCGATGAG | 0.07
41 | CGCTCGCC | -0.0658
42 | CTCCGCGA | 0.35
43 | AGTCTCCA | -0.229
44 | TAATGGCA | -0.134
45 | CTCTTGCA | -0.228
46 | ACCTTGAC | -0.143
47 | ACATCCTC | -0.114
48 | ATCTCACC | 0.0437
49 | CGGCCAAG | -0.0655
50 | GGGTAGAC | -0.151

Row | Sequence | PBM E-score
51 | CTAGTCAA | 0.015
52 | ACCATGAT | -0.0585
53 | TTGGCAAA | -0.0175
54 | AAACGTGG | -0.137
55 | AGAGAAAT | 0.126
56 | GAGGTGCA | -0.0431
57 | AAAGCGCC | 0.0273
58 | AGATAATA | 0.124
59 | AAATGAAT | 0.184
60 | CGTTCCTA | -0.112
61 | ACTGGATC | -0.0162
62 | CAGATCAG | 0.107
63 | CGCCACTC | -0.0913
64 | ATACTGCA | 0.126
65 | CGACTATA | -0.013
66 | ACACACGA | 0.0316
67 | AGCCCTAA | 0.0488
68 | CTATCCAC | 0.0213
69 | AGCCCATG | -0.2
70 | AGTCTCGG | 0.109
71 | ATGGCATA | 0.0329
72 | CTCTTAAA | 0.302
73 | AGATCCCC | -0.125
74 | CCTAATCA | 0.165
75 | AGGATAGA | 0.0417

Row | Sequence | PBM E-score
76 | CTTATATC | 0.222
77 | ATTACTTC | 0.102
78 | CCTTTGGA | -0.126
79 | ATGTCCCC | -0.163
80 | AGTCCCCC | -0.276
81 | AGAAGAAT | 0.139
82 | CACTCACC | -0.0683
83 | AAGGCTCT | -0.132
84 | AGATACAG | 0.08
85 | ACTGGCAG | -0.12
86 | GATCTCGA | -0.0163
87 | CGACCTTC | 0.0798
88 | AGGCCTTC | 0.0672
89 | ACCTGAGT | -0.0732
90 | GTCGCATA | 0.0981
91 | ATGGGTCG | -0.0319
92 | GACATGCA | -0.0916
93 | CGACAGCA | -0.0542
94 | GCATGTGA | -0.181
95 | CTTCCAGA | -0.274
96 | AATTCCAA | 0.21
97 | CGGCGTAA | 0.166
98 | CTCATACA | 0.138
99 | ATCGGCCC | -0.258
100 | CCTCACTA | -0.0975

Row | Sequence | PBM E-score
101 | AAACAGAA | 0.143
102 | TATTAGGA | 0.0533
103 | CCTTTTGC | -0.0963
104 | ACTTTAAG | 0.195
105 | GCATCCGC | -0.0308
106 | ACGCCTGC | -0.307
107 | GCTCCTAA | -0.258
108 | AGGATCCC | -0.0607
109 | GTCGGAAC | 0.134
110 | GCTCAGAA | 0.0338
111 | GCAACTGA | -0.0671
112 | GGTCAAAC | 0.00911
113 | CCCTCGCA | -0.219
114 | GGGATAAA | 0.141
115 | ACACGCAG | -0.151
116 | ATAGTGCC | -0.165
117 | GGAGATAA | 0.197
118 | CCCTTGTC | -0.172
119 | ACCTTACA | 0.0525
120 | CCGCACGC | -0.237
121 | TAAGGCTA | -0.0499
122 | AAGAGATT | 0.21
123 | CCTTTAAA | -0.0727
124 | ACGTAAAA | 0.109
125 | GCGACGAA | 0.0149

Row | Sequence | PBM E-score
126 | AAGCAATG | 0.104
127 | GGTTACTA | 0.146
128 | AACACATC | 0.119
129 | AGAGCGCT | -0.136
130 | ATCCGACG | 0.0371
131 | AACTGACG | -0.126
132 | CCGTTCGC | -0.0248
133 | AAGCAACC | -0.0389
134 | ACACCCTA | -0.127
135 | CACATAAC | -0.197
136 | CCGCAGCC | -0.0543
137 | AGTTGAAG | 0.0557
138 | ATCGGAAT | 0.352
139 | GCCTGTCA | -0.173
140 | ACATAAGG | 0.131
141 | CCTCTGGA | -0.148
142 | GGACGGTA | -0.0407
143 | AGGACGAT | -0.112
144 | CGCGCATA | -0.269
145 | CACGCGAC | -0.138
146 | AGGAACCG | -0.038
147 | CTTATTAA | 0.159
148 | CAAAGTTC | 0.00795
149 | AGTATTCG | 0.0764
150 | CAGGGCAG | -0.183

Row | Sequence | PBM E-score
151 | CATTGTGC | 0.0252
152 | CGGCGGCC | -0.061
153 | TACTAACA | 0.131
154 | GCCCATCC | -0.229
155 | AATCGGCT | 0.11
156 | GAACCGGC | -0.0738
157 | CCTTATCA | 0.0523
158 | CCTGTGAG | -0.117
159 | ACACCGCG | -0.179
160 | ACATTCTC | -0.0453
161 | ACCCAGAC | -0.0554
162 | CAGGAGAA | 0.0231
163 | AATCCGTG | -0.153
164 | CGTGCGGA | 0.0121
165 | CTAGGTTC | 0.0866
166 | CACAGATG | -0.127
167 | GGTACACA | -0.139
168 | AGTAGACT | 0.0983
169 | GACGTTCC | -0.11
170 | ATAGGTTA | 0.0903
171 | GAATACTA | 0.127
172 | GACGAGGC | -0.0913
